From patent publication US12729177B2, “Small molecules promoting sympathetic nerve regeneration” (OREGON HEALTH & SCIENCE UNIVERSITY, priority 2020, dated 2026)

Key:
PTP1B = target: T1, PTP1B (Homo sapiens, UniProt P18031); test: Insulin-stimulated ERK1/2 phosphorylation in HepG2 cells (PTP1B negative control); details: 1 μM HJ-01 or HJ-02, 5 μM CinnGel 2ME for 1.5 hours; 100 nM insulin 5 min
T1 sequence (P18031 1-435): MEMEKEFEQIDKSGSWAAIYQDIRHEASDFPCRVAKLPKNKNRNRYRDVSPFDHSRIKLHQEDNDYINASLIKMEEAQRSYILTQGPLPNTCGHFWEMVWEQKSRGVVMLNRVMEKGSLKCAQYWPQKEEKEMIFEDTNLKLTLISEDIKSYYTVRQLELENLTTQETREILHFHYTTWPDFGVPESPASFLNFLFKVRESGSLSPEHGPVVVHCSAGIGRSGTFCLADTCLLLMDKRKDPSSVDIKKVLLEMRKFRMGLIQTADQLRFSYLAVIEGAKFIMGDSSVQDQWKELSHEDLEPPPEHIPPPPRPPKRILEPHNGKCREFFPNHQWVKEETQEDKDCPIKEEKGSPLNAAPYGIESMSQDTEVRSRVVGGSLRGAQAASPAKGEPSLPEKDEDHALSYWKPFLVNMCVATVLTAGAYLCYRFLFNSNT

TrkA-PTPσ interaction = TrkA-PTPσ interaction (Homo sapiens, UniProt Q13332); test: Immunoprecipitation assay: TrkA-RFP pulldown of PTPσ in transfected HEK-293t cells; details: 1 uM; HEK-293 cells treated with CSPGs and NGF; normalized to vehicle
[1] = test system: PTPσ inhibition of TrkB signaling (ERK1/2 phosphorylation); test: TrkB stimulated ERK phosphorylation in TrkB-HEK-293t cells co-expressing full-length PTPσ
sympathetic neurons = test: Sympathetic outgrowth assay: dissociated sympathetic neurons on laminin or laminin and CSPGs, live cell imaging; details: 10 ng/mL NGF

SMILES | ERK1/2 phosphorylation in insulin-stimulated HepG2 cells (PTP1B) | amount of PTPRS co-immunoprecipitated with TrkA-RFP (TrkA-PTPσ interaction) | BDNF-induced ERK1/2 phosphorylation [1] | sympathetic axon outgrowth over inhibitory CSPGs (sympathetic neurons)
C=CC(=O)Nc1cc(OC)c(OCC2CCCCC2)cc1C(=O)O [HJ-01, 2-acrylamido-5-(cyclohexylmethoxy)-4-methoxybenzoic Acid] | had no effect on ERK1/2 phosphorylation | reduced the amount of PTPRS that bound to TrkA-RFP | restored ERK1/2 phosphorylation to basal levels | restored sympathetic axon outgrowth in a dose dependent manner
C=CC(=O)Nc1cc(OC)c(OCCCCCC)cc1C(=O)O [HJ-02, 2-acrylamido-5-(hexyloxy)-4-methoxybenzoic Acid] | had no effect on ERK1/2 phosphorylation | reduced the amount of PTPRS that bound to TrkA-RFP | restored ERK1/2 phosphorylation to basal levels | restored sympathetic axon outgrowth in a dose dependent manner
CCC(=O)Nc1cc(OC)c(OCC2CCCCC2)cc1C(=O)O [HJ-03, 5-(cyclohexylmethoxy)-4-methoxy-2-propionamidobenzoic Acid] |  |  |  | did not promote sympathetic axon outgrowth across CSPGs
